Source: PubChem BioAssay AID1963443 (Molecular Pharmacology Branch, DTP, NCI, 2024)
For part of its entries the source gives two or more results. They are shown here; other results are not. The source may hold further records. Values given together are repeated measurements across runs, samples, wells, individuals or studies. Brackets with × give the number of equal values in this list. A date in brackets names the month of the test.

System: MDA-MB-231 complex spheroids, growth inhibition
Experiment: Anticancer human tumor MDA-MB-231 cell line growth inhibition [Asc];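 also: spheroids exposed to compounds for 7 days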
Conditions: stronger effect = lower value
Description: Multicellular complex tumor spheroid response to apoptosis pathway targeting inhibitors Alrizomadlin, Pelcitoclax, and Dasminapant in combination with a variety of drugs and investigational agents in selected tumor cell lines
The MDM2 inhibitor alrizomadlin, the Bcl-2/Bcl-xL inhibitor pelcitoclax, and the IAPs inhibitor dasminapant were evaluated both individually and in combination with standard of care and investigational anticancer small molecules within a complex spheroid model of solid tumors. . Complex spheroids include a stromal component modeled by human endothelial cells (HUVEC) and fibroblasts modeled by human mesenchymal stem cells (MSCs). The concentration ranges selected for each drug and investigational agent were based upon clinically achievable concentrations if the clinical Cmax of the agent was known.
Compounds. The drugs and investigational agents: alrizomadlin (APG-115; NSC831270), pelcitoclax (APG-1252; NSC835773), dasminapant (APG-1387;NSC834197), TAK-243 (NSC785004), copanlisib (NSC809693), olaparib (NSC753686), talazoparib (NSC767125), cobimetinib (NSC 768068), eltanexor (KPT-8602, NSC 794443), abemaciclib (NSC 768073), sotorasib (NSC818433), adagrasib (NSC 831453), MRTX-1133 (NSC 836407), Iadademestat (ORY1001, NSC 806812), and RMC-4630 (NSC839698), were obtained from the NCI Developmental Therapeutics Program Chemical Repository. The FDA-approved anticancer drug set is available from the Developmental Therapeutics Program at https://dtp.cancer.gov/organization/dscb/obtaining/available plates.htm. […] The stock solutions were prepared in dimethyl sulfoxide (DMSO, Sigma-Aldrich, St. Louis, MO, cat. D2650) at 800-fold the tested concentration and stored at -70 degrees C prior to their use. All drugs and investigational agents were tested over a range starting from a high concentration at or near the clinical Cmax and decreasing in half-log increments. If the clinical Cmax for an agent had not been determined, the highest concentration tested was 10 microM.
The patient-derived cancer (PDC) cell lines include five colon adenocarcinomas: 186277-243-T-J2-PDC, 616215-338-R-J1-PDC, 439559-082-T-J2-PDC, 463943-066-T-J2-PDC, and 519858-162-T-J1-PDC; three pancreatic carcinomas: 323965-272-R-J2-PDC, 521955-158-R6-J3-PDC, and 521955-158-R2-J5-PDC; two uterine sarcomas: 327498-152-R-J2-PDC and 993429-296-R-J1-PDC; two rhabdomyosarcomas: 755483-174-R-J1-PDC and 772245-204-R-J1-PDC; two soft tissue sarcomas: 126254-015-R-J1-PDC and 494315-158-R-J1-PDC; two malignant fibrous histiocytomas: 317291-083-R-J1-PDC and 596521-263-R-J1-PDC; two breast carcinomas: 171881-019-R-J1-PDC and 885512-296-R-J2-PDC; and one ovarian carcinoma: 6556581-035-R-J-PDC were obtained from the NCI PDMR, (https://pdmr.cancer.gov). […]

SMILES: O=C(c1cc(Cc2n[nH]c(=O)c3ccccc23)ccc1F)N1CCN(C(=O)C2CC2)CC1
- viability, T/C (compound alone 10 µM): 65.7%, 72.9%, 6.29%

SMILES: CCN1C(C(=O)NC23CCC(C(=O)O)(CC2)CC3)C(c2cccc(Cl)c2F)C2(C(=O)Nc3cc(Cl)ccc32)C12CCCCC2 (centres undefined)
- viability, T/C (compound alone 3 µM): 101 (2×), 104 (2×), 105, 107, 92.4, 98.8, 97.8, 97.2, 102, 96.5, 96.3, 109, 127%

SMILES: CNC(C)C(=O)NC1CN(S(=O)(=O)c2cccc(S(=O)(=O)N3CCC4CCC(C(=O)NC(c5ccccc5)c5ccccc5)N4C(=O)C(NC(=O)C(C)NC)C3)c2)CCC2CCC(C(=O)NC(c3ccccc3)c3ccccc3)N2C1=O (centres undefined)
- viability, T/C (compound alone 0.316 µM): 1.17, 0.93, 1.02, 1.27, 1.11, 0.94, 0.81, 1.06, 2.1, 1.66, 0.86, 1.13, 1.88% [2022-10] and 107% [2022-11]
- viability, T/C (compound alone 1 µM): 0.97 (2×), 1.13, 1.1, 1.61, 1.29, 1.26, 1.21, 1.17, 0.98, 0.99, 1.31, 2.07% [2022-10] and 111% [2022-11]
